According to article PMC4336329 (PLoS ONE, 2015):
About 2,200 (0.71%) of roughly 310,000 compounds showed an effect of 50% or more. The effect is printed as a negative number. The list shows a part of the results.

Target: human ether-à-go-go-related gene (hERG) potassium channel (human, UniProt Q12809)
Test: primary screen, population patch clamp on CHO cells stably expressing hERG

human ether-à-go-go-related gene (hERG) potassium channel, sequence (Q12809 whole entry, looked up): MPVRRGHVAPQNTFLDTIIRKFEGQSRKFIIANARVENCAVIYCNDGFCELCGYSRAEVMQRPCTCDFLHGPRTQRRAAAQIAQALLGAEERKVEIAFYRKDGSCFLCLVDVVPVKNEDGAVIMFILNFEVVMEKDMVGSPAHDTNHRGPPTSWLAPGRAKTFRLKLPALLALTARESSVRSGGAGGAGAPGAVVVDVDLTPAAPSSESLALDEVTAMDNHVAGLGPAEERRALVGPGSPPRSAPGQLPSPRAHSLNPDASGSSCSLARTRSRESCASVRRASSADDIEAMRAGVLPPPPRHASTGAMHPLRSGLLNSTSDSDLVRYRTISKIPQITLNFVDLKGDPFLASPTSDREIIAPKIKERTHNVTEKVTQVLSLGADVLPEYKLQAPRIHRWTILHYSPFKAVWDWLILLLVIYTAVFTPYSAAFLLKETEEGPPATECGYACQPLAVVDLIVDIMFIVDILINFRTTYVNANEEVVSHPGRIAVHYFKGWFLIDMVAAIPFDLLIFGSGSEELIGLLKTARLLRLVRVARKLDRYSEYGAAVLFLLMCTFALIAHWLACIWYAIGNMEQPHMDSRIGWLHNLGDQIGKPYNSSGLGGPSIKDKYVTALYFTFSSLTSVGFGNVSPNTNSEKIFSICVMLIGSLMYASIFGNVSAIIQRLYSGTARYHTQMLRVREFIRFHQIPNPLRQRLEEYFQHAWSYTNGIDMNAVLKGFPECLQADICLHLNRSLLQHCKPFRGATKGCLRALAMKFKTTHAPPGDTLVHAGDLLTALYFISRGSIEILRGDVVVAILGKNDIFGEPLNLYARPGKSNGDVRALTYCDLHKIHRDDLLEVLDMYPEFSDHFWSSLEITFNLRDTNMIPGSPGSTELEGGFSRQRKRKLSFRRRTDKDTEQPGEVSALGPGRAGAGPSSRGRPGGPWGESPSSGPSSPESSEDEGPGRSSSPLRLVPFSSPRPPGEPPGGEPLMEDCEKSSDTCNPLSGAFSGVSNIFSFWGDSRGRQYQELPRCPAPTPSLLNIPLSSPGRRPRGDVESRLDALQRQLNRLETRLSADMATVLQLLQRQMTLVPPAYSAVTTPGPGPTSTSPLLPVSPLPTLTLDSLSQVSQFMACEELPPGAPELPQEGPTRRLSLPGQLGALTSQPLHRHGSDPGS

Compound | hERG current change (%, negative = inhibition) at 1uM
COc1ccc(-c2nc3ncccc3o2)cc1NC(=O)c1cccs1 | 2.4%
COc1ccccc1C(=O)NC(=O)COC(=O)c1cccc(NC(C)=O)c1 | 6.4%
CCOc1ccccc1N1C(=O)CN(Cc2ccc(OC)c(OC)c2)C1=S | 18.8%
O=C(NC(=S)NCc1ccco1)c1ccccc1 | 12.5%
CC1Cc2ccccc2N1C(=O)CN(C)S(=O)(=O)c1cccc2cccnc12 (stereo not shown) | 6.07%
COc1ccc(CNC(=O)CCS(=O)(=O)c2ccc(Br)cc2)cc1 | 12.7%
Br.COc1ccc(Nc2nc(-c3sc(C)nc3C)cs2)cc1 | 11.4%
O=C1CCC2S/C(=C/Nc3ccc(C(F)(F)F)cc3)C(=O)N12 (stereo not shown) | -22.1%
COc1ccc(Cn2nnnc2CN2CCN(c3ccc(OC)cc3)CC2)cc1 | 4.25%
O=c1[nH]c2cc3c(cc2cc1CN(Cc1cccnc1)C(=S)NCc1ccco1)OCCO3 | 18.5%
O=C(NCCc1ccccc1)c1cc(S(=O)(=O)N2CCCC2)ccc1F | -2.38%
O=C(NC1CCCN(c2ccc(C(F)(F)F)cn2)C1)c1cc(Cl)ccc1F (stereo not shown) | 12.4%
CCC(=O)N1CCc2cc(S(=O)(=O)NCCC(=O)NC3CCCCCC3)ccc21 | -2.16%
C=CCN1C(=O)C(CC(=O)O)SC1=Nc1ccc(N=Nc2ccccc2)cc1.N (stereo not shown) | 12.2%
COc1ccc(S(=O)(=O)N2Cc3ccccc3CC2C(=O)Nc2nccs2)cc1OC (stereo not shown) | 3.08%
C=CCNC(=O)N1C2=NC(C(=O)OC)=C(C(=O)OC)[C@@H]3N(Cc4ccccc4)c4ccccc4[C@]23C[C@H]1C(=O)OC | 11.4%
Cc1cccc(N2CCN(C(=O)CCCOc3ccccc3)CC2)c1C | -0.828%
CCCCNC(=O)c1ccc(/C=C2\Oc3ccccc3N(C)C2=O)cc1 | -3.85%
CCOC(=O)N1CCc2c(sc(NC(=O)CN3CCN(C)CC3)c2C(=O)Nc2ccccc2)C1 | -85.6%
CC1(C)CC(=O)c2c(-c3cccs3)n[nH]c2C1 | -16.7%
COc1ccccc1/C=C/C(=O)Nc1cccc(S(=O)(=O)N2CCOCC2)c1 | 9.15%
COC(=O)c1cc2sccc2n1CC(=O)Nc1cccc(SC)c1 | 17.5%

Compound | hERG current change (%, negative = inhibition) at 1uM
Cc1cccc(NS(=O)(=O)c2cccc(C(=O)N3CCCC3)c2)c1 | 18.8%
O=C1c2cc(N3CCCC3)c([N+](=O)[O-])cc2C(=O)N1c1ccccc1 | 10.1%
CCCCCN1N=C(C)CC1=O | 3.51%
COc1ccc(N2CC(C(=O)N3CCCC(C)C3)CC2=O)cc1 (stereo not shown) | 5.51%
O=C(Cn1c2ccc(F)cc2c2nc3n(c(=O)c21)CCS3)Nc1ccccc1F | 14.6%
O=c1c2c3nc4ccccc4nc3n(/N=C/c3ccccn3)c2ncn1-c1ccccc1 | 16.8%
Cc1nn(C(C)C(=O)Nc2sc3c(c2C#N)CCCC3)c(C)c1[N+](=O)[O-] (stereo not shown) | 17%
COc1ccccc1-c1cc(C(=O)NN)[nH]n1 | 11.9%
CN=C1SC(C(=O)Nc2ccccc2Cl)CC(=O)N1c1ccc(OC(F)(F)Cl)cc1 (stereo not shown) | 20.3%
Cc1ccc(CNC(=O)C(N=C2NS(=O)(=O)c3ccccc32)C(C)C)cc1 (stereo not shown) | 7.38%
COc1cnc(-c2cccc(C(F)(F)F)c2)[nH]c1=O | 7.01%
CC(=O)Nc1ccc(S(=O)(=O)NCCC(=O)NCCOc2ccccc2)cc1 | 4.7%
Cc1ccc(/C=C/C(=O)c2c(C)cc(C)[nH]c2=O)cc1 | -1.54%
O=C(CNC(=O)c1cccs1)NCC(=O)OCc1ccc(F)cc1 | 0.143%
O=C(NCCC1=CCCCC1)C1CCN(C(=O)Nc2ccccc2)CC1 | 9.51%
COc1cc(C(=S)N2CCOCC2)ccc1OC(=O)c1ccccc1C | 14.9%
CCc1ccccc1S(=O)(=O)Cc1ccc(C(=O)N2CCN(c3ccccn3)CC2)o1 | -11.4%
Cc1ccc2c(c1)c1ncnc(N3CCOCC3)c1n2C | 5.69%
Cc1ccc(CCNC(=O)CCS(=O)(=O)Cc2ccc(C)cc2)cc1 | 12.4%
CCOc1ccc(C(=S)NC2CCCCC2)cc1 | 1.9%
C/C(=N\NC(=O)C1(C)CC1(Br)Br)c1ccc([N+](=O)[O-])cc1 (stereo not shown) | 9.87%
COc1cc(-c2noc(-c3cccc(Cl)c3)n2)cc(OC)c1OC | 2.51%

Compound | hERG current change (%, negative = inhibition) at 1uM
CC(C)Cc1nc2ccc(N)cc2[nH]1.Cl | 0.228%
O=C(Nc1ccccc1N1CCN(C(=O)c2ccccc2)CC1)c1cc(Br)ccc1Cl | 4.27%
CCn1ccc(C(=O)Nc2sc3c(c2C(=O)OC)CCC3)n1 | 12.5%
CC(C)c1nnc(NC(=O)c2cccc(NC(=O)C(F)(F)F)c2)s1 | 7.74%
Cc1c(OC(C)C(=O)NCCCN2CCOCC2)ccc2c1oc(=O)c1ccccc12 (stereo not shown) | 5.53%
COc1cc2c(C(=O)OCCN(C)C)c(CSc3ccccc3)n(C)c2cc1Br | 5.05%
CCCN1CCC[C@@H]2Cc3nc(N)ncc3C[C@H]21.Cl | 8.86%
Cc1ccc(C)c(S(=O)(=O)Nc2ccc3cn[nH]c3c2)c1 | 14.1%
Cc1ccnc(NC(=S)N2CCN(c3cccc(C(F)(F)F)c3)CC2)c1 | 13.6%
CCOc1cc2[nH]c(=S)n(CC3CCCO3)c(=O)c2cc1OCC (stereo not shown) | 9.67%
Clc1cccc(-c2nnc3n2CCCCC3)c1 | 8.23%
COc1ccc(-c2csc3ncnc(N4CCN(S(=O)(=O)c5cccc(F)c5)CC4)c23)cc1 | 7.12%
C=CCNc1sc(C(=O)C(C)(C)C)c(N)c1C#N | 11.2%
COc1cccc(/C=C2\Oc3cc(OCC(=O)N4Cc5ccccc5C[C@H]4C(=O)O)ccc3C2=O)c1 | 12.6%
Cc1nn(CC(=O)NN)c(C)c1Br | 11.2%
O=C(O)c1cccc2nc3ccccc3nc12 | -7.04%
COc1cc(C=Nc2c(C)cc(C)cc2C)ccc1OC(C)=O | 6.94%
Cc1ccc(C(=O)N/N=C\c2ccc3c(c2)OCO3)cn1 | 0.204%
Cc1cccn2c(=O)c3cc(C(=O)NCC(C)C)sc3nc12 | 1.09%
CCOc1ccc(C(C)=O)cc1Cc1c(O)nc(N)[nH]c1=O | 11.6%
Cc1ccc(C(=O)n2cc(CCN3CCS(=O)(=O)CC3)c3ccccc32)cc1 | 10.3%
Cc1ccc(OCCCCNC(C)(C)C)c([N+](=O)[O-])c1.O=C(O)C(=O)O | 4.98%

Compound | hERG current change (%, negative = inhibition) at 1uM
O=C1C2C3c4ccccc4C(c4ccccc43)[C@@H]2C(=O)N1c1cccnc1 (stereo partly shown) | 11.8%
O=c1c2ccccc2nc(/C=C/c2cccc(Br)c2)n1CCCO | 10.2%
COc1ccccc1-c1noc(CCCC(=O)N2CCOCC2)n1 | 5.6%
CCCNS(=O)(=O)c1ccc(OCC(=O)N2CCN(C)CC2)cc1 | 0.693%
Cn1cnnc1SCC(=O)Nc1cc(S(=O)(=O)N2CCCCCC2)ccc1Cl | 7.67%
COc1ccc(NC(C)C(=O)N2CCN(Cc3ccccc3)CC2)cc1 (stereo not shown) | 20.3%
Cc1cccn2c(=O)c3cc(C(=O)NC4CCCC4)sc3nc12 | 2.15%
Cc1ccc(C(=O)NC(C)C2CCCO2)o1 (stereo not shown) | 8.01%
COc1ccc(S(=O)(=O)N(C)CC(=O)Nc2ccc(C(N)=O)cc2)cc1OC | 10.9%
Cc1ccc(-n2c(=O)c3ccc(C(=O)NCc4ccco4)cc3n(Cc3ccccc3C#N)c2=O)cc1 | 21.3%
COc1ccc(OC)c(/C=C2\SC(=S)N(C(C(=O)O)c3ccccc3)C2=O)c1 (stereo not shown) | 10.5%
COC(=O)c1cc(Br)c(=O)n(-c2ccccc2OC)c1 | 11.9%
O=C(NCCCCc1ccccc1)C12CN(Cc3ccccc3)CC1C(c1cccc([N+](=O)[O-])c1)=NO2 (stereo not shown) | 10.9%
C=CCn1c2ccccc2c2nnc(SCC(=O)OCN3C(=O)c4ccccc4C3=O)nc21 | -3.37%
O=C(c1cc(Cl)c(=O)n(Cc2ccc(Cl)cc2)c1)N1CCOCC1 | -6.51%
CCCNC(=O)c1ccc(N2CCC3(CC2)CC(c2ccccc2)=NO3)c(NC(=O)c2cccc(OC)c2)c1 | -2.22%
CCOC(=O)c1sc(=NC(=O)c2ccc(C)cc2)n(C)c1C | 8.94%
Cc1cc(Cl)c2oc(C(=O)N(C)Cc3ccon3)c(C)c2c1 | 13.6%
COCCn1c(SCC(=O)Nc2nc(C)cs2)nnc1C(C)C | 9.94%
COc1ccc(C(=O)CCc2ccccc2)c(O)c1 | 18.6%
COC(=O)c1ccc2c(c1)NC(=O)c1ccccc1S2 | 15.9%
O=C(O)c1cc(NC(=O)c2ccco2)cc(NC(=O)c2ccco2)c1 | 10.8%
